One molecule from patent US6750034B1, “DNA encoding human serine protease D-G” (Ortho-McNeil Pharmaceutical, Inc., priority 2000, dated 2004) can be followed below.

The experiment can be described thus: Chromogenic amidolytic assay of the unactivated zymogen. The class given is biochemical. Conditions: purified unactivated zymogen, not cleaved by enterokinase. The procedure:
Amidolytic activities of the activated serine proteases are monitored by release of para-nitroaniline (pNA) from synthetic substrates that are commercially available (Bachem California Inc., Torrance, […].; American Diagnostica Inc., Greenwich, Conn.; Kabi Pharmacia Hepar Inc., Franklin, Ohio). Assay mixtures contain chromogenic substrates in 500 uM and 10 mM TRIS-HCl (pH 7.8), 25 mM NaCl, and 25 mM imidazole. Release of pNA is measured over 120 min at 37° C. on a micro-plate reader (Molecular Devices, Menlo Park, Calif.) with a 405 nm absorbance filter. The initial reaction rates (Vmax, mOD/min) are determined from plots of absorbance versus time using Softmax (Molecular Devices, Menlo Park, Calif.). The specific activities (nmole pNA produced/min/ug protein) of the activated protease D-G-6×HIS for the various substrates are presented in Table 1.

B1: PFEK-protease D-G-6×HIS zymogen: recombinant protease D-G catalytic domain in zymogen activation construct (prolactin signal, FLAG, enterokinase site, 6×HIS), expressed in Sf9 cells (protein)
chain: MDSKGSSQKSRLLLLLVVSNLLLCQGVVSDYKDDDDVDAAALAAPFDDDDKIVGGYALDVDSWPWQVSIQYDKQHVCGGSILDPHWVLTAAHCFRKHTDVFNWKVRAGSDKLGSFPSLAVAKIIIIEFNPMYPKDNDIALMKLQFPLTFSGTVRPICLPFFDEELTPATPLWIIGWGFTKQNGGKMSDILLQASVQVIDSTRCNADDAYQGEVTEKMMCAGIPEGGVDTCQGDSGGPLMYQSDQWHVVGIVSWGYGCGGPSTPGVYTKVSAYLNWIYNVWKAELSRHHHHHH
As for B1, the chromogenic amidolytic activity entry was “No measurable chromogenic amidolytic activity”.
